Reference: publication doi:10.1101/2025.11.26.690829, “TDP-43 controls RNA structure through high affinity lattice interactions” (bioRxiv, 2025)

Molecular target: the molecule itself
Experiment: native gel or EMSA; 5 pM 32P-labelled (GU)12 RNA with increasing NTD-RBD up to 10 uM; 20 mM BIS-TRIS pH 7.0, 150 mM LiCl, 1 mM TCEP, 1 mM EDTA; room temperature; third, slower species seen above the 2:1 protein-RNA complex

B1: TDP-43 NTD-RBD ([…]) (domain or fragment)
chain: not shown
notes: lacks the C-terminal domain; source: E. coli BL21(DE3) pLysS, purified (Ni-NTA, HiTrap Heparin)
- binding result: binds
